Data taken from publication PMC12136788.
This is one part of the list.

T1: UNK ZnF1-3 (human, UniProt Q9C0B0 31-174)
T1 sequence: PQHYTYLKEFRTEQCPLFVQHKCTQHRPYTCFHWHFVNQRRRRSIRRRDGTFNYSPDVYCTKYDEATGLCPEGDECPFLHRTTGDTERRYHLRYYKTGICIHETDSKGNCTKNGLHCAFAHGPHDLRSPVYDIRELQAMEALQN

B1: 17782281_17793209_281_CDS_ENSG00000078674_ENST00000519253|human|control|control (ssRNA)
RNA: GGGAGUUCUACAGUCCGACGAUCGUUGAGCCUGUCAUCAACAUUCUCAUUACUCCAGUUUGGUAAAUCCUGAUCAUUCAUGCCAUCUUCAAAGGGACCUCCUCCUGUGGCCAUACUGGAUUUAACAAUUAACUCUCUGUUUAGCAACAGAGGAUUGAGCAUCA
B2: chr7:54825262:54825263:-_ENSG00000132432_ENST00000352861|hu_hu|hu_hu_hu_mus_False|1_48 (ssRNA)
RNA: GGGAGUUCUACAGUCCGACGAUCCUGCCGGCUGGGCUCCACAAACUGCAUUACCUGAUCCAUGUUUGUUGGAUGGCGGAUUGAGAGUGCCAGGGACCGUAGCUCAGGAGAGAACCGAGCCCAACGGAACCGGAAGCGGAAUCCCAACAGAGGAUUGAGCAUCA
B3: 100315748_100315868_169_5pUTR_ENSG00000162688_ENST00000361915|human|control|control (ssRNA)
RNA: GGGAGUUCUACAGUCCGACGAUCGCUGCCCAGCCUCGCACAGAAGCCGCAGCCCAAGGAGGGCCGGGCGCCGUGAAGGGCAAAGGGAGGGGCGGCGAGCGACCGGGGCAGCGCCGAGGCAGCUGGGUGAGAAGCAGGCAGAGUCAACAGAGGAUUGAGCAUCA
B4: chr1:167252050:167252051:+_ENSMUSG00000040836_ENSMUST00000111450|mus_mus|motif|central (ssRNA)
RNA: GGGAGUUCUACAGUCCGACGAUCGGAUACCAUUGAAGACAAGAGCCACAUGGUGGCUUCCCUUUCACAUCCACCAUCUCGGGUCCUCCUGAUGCCCCAGCCACAUCUCCAUCUGCUUCUAACGUGUGCUUUCGAAGCCUCGUUCAACAGAGGAUUGAGCAUCA
B5: chr2:5814250:5814251:-_ENSMUSG00000025816_ENSMUST00000102981|mus_hu|mus_mus_mus_hu_True|38_108 (ssRNA)
RNA: GGGAGUUCUACAGUCCGACGAUCUUCCUUUCAGGCUUCUGAAUUUCUGGUAGAACUGCACAGAAUGGUUUGAUAACUUCUAAAAAUUUGAUGCCCAUGGCGGCGGCUGGGGAGGCCCAGGGGGAAACCGCGGCCUCGGCGCUGCAACAGAGGAUUGAGCAUCA
B6: chr12:16048344:16048345:+_ENSG00000023734_ENST00000419869|hu_hu|hu_hu_hu_mus_True|8_68 (ssRNA)
RNA: GGGAGUUCUACAGUCCGACGAUCAGAUCGUCCAUAAGUAAUAACCAAAAUCUCUCCUUCAGGAAUAUAUUCCAUACUGCUAACAGACAUAUUAAAAUUCAGAGAUUUCACUUCUGUCAUUGUGGCAUGAUCCCAAAGCCGAACCAACAGAGGAUUGAGCAUCA
B7: 64422554_64422674_5156_CDS_ENSG00000118482_ENST00000393387|human|control|control (ssRNA)
RNA: GGGAGUUCUACAGUCCGACGAUCAGUCUGUAUGUUUUCUACUGAUGGUGAGUUUUGUGCAACUUUUAAAUUGUCACUCUGCUGAACACACGAGUUUUUCUCUGCAGAACACAACUUUUCCUCUACAUUGAUUUGUUCUGUUAACAACAGAGGAUUGAGCAUCA
B8: chr1:39494447:39494448:+_ENSG00000168653_ENST00000372967|hu_mus|hu_hu_hu_mus_False|8_78 (ssRNA)
RNA: GGGAGUUCUACAGUCCGACGAUCGCACCGAGCGGCGUUCUUAUAGGGCUGUUCUGCACUCUGGAUUAUAAAGUGCCGGUCCAGGCUGAUGCCCAGCUUUUUCUGUAUGUCAAGGAAAGGCAUGGCUGAUGCUCGUGCUUGUCACAACAGAGGAUUGAGCAUCA
B9: chrX:140365796:140365797:-_ENSMUSG00000031285_ENSMUST00000033642|mus_mus|mus_mus_mus_hu_False|48_98 (ssRNA)
RNA: GGGAGUUCUACAGUCCGACGAUCCUUCUCAUUACUCAAUGCCUGCAAGGUUCUGGUUCGGUAGAAGCUACAGUGGGCGCUGUGAGUGGGACUUGGAAACCCAUUCAUCCGGGAGCCUCGCAUGUUCCUGGAUGUCUUAUCUCUCAACAGAGGAUUGAGCAUCA
B10: chr5:40767622:40767623:-_ENSG00000132356_ENST00000397128|hu_mus|hu_hu_hu_mus_False|28_28 (ssRNA)
RNA: GGGAGUUCUACAGUCCGACGAUCAUCUUUUAUUGCGGCCCUCUUCAUGGGAUCCACCUGCAGCAUAUGUUUCAAAAGGCUGAUUACUGAAGGGUUUAAGUACUGAGGGGUAUAGAAGAUCCCAUCACAUAUCUUCUUAAAAAGCAACAGAGGAUUGAGCAUCA
B11: 127655415_127657517_144_CDS_ENSMUSG00000027379_ENSMUST00000028858|mouse|control|control (ssRNA)
RNA: GGGAGUUCUACAGUCCGACGAUCUUCCCAUUCUCCAAGUGGGUCAUUACCCGUGUAGCUUUGCAUAUGGGCUUCAAACAUGCGAAAGACAUUUUCUAGGUUGUCCAUGACGAGAAAAAACGCGCAGCGGCGAAAUACCCCACCCAACAGAGGAUUGAGCAUCA
B12: chr17:65740002:65740003:+_ENSG00000130935_ENST00000581375|hu_hu|hu_hu_hu_mus_False|28_98 (ssRNA)
RNA: GGGAGUUCUACAGUCCGACGAUCAACAAAUCUUUCUCUGGAUGAAGAACAGGAAGAUUCAUAUUAAAAAAAAUAUAUAUCCAUCAAGUUAGGUGUGGUGGCCACACAGAGCUCCAGAGCACUUUGGGAGGUGGAUCUCUGAGUCAACAGAGGAUUGAGCAUCA
B13: 110412523_110415850_1321_CDS_ENSG00000138802_ENST00000265175|human|control|control (ssRNA)
RNA: GGGAGUUCUACAGUCCGACGAUCAGCUGGAGCUGGAGCAGAAGCAGGAUCAGGUUCAGGGGCGGGAUCAGGAGCAGGACUGCUUGCUGAUGAAGAAAGCAUAUCUGGGUAACUGCCUCCUUCCAGGGCAUCAUAACUGUUGGGCAACAGAGGAUUGAGCAUCA
B14: chr7:149068622:149068623:-_ENSMUSG00000025139_ENSMUST00000001950|mus_hu|mus_mus_mus_hu_False|18_28 (ssRNA)
RNA: GGGAGUUCUACAGUCCGACGAUCGUGAGGCCUCUGAGUGUGGCUUGUGGUCUGUCCUGGGUUAGAGUUGUUAAUAUCACGGAACAUACCAUCUAGAACGUUCCAGUCUGCCUGACUCAUCCACCCUCCAAUGGAGAAGAAAUCCAACAGAGGAUUGAGCAUCA
B15: chr5:143539998:143539999:-_ENSG00000145817_ENST00000274496|hu_hu|FALSE|FALSE (ssRNA)
RNA: GGGAGUUCUACAGUCCGACGAUCUUUUCAAAAGACGGAAAUCAGGGCAAAGACUCCAUAUAACAAAGCGCAAGGAUAUGCUACUAAAAGUUGCUGUCCUUCCAUGGCUAAUGCAGAAAUAAAUAUUUUGGAAGCAGAAAAACUCAACAGAGGAUUGAGCAUCA
B16: 54630568_54630688_5623_3pUTR_ENSG00000094916_ENST00000209875|human|control|control (ssRNA)
RNA: GGGAGUUCUACAGUCCGACGAUCUUAAGGUAGAGACAAUUGCUCCCCGGGCCAAACACAGAUCCCUCCAACCCCUCACUGUACCUUAGGAAAGCUGGGGUAAACUACAGAUUCAACAAAAUCUCAAUAAGAAAAUCCCAAAAACAACAGAGGAUUGAGCAUCA
B17: chr3:39121231:39121232:+_ENSG00000114742_ENST00000302313|hu_hu|motif|central (ssRNA)
RNA: GGGAGUUCUACAGUCCGACGAUCAUUGGUAUCUUUGGUUAAUAUAUGUCUCUUAUCAUUAAGAAUGUGGCACUGAAUAAUACGGGCACCCCCUUUAAUAACCUGGUCAGGUUGUGUACAAAGAGGUGUUAUAGGAUUUGUACACAACAGAGGAUUGAGCAUCA
B18: chr6:108204272:108204273:-_ENSG00000025796_ENST00000369002|hu_mus|FALSE|FALSE (ssRNA)
RNA: GGGAGUUCUACAGUCCGACGAUCUUGCUCUCUAUCAGACUCCCUGUCACUACCAUCUUCUUUCUCACUCUGAGAAUCUCUAUUGGUUUCUUCCUCUUCAGAAUCACUGCCCUUGUCAGAAAUGUCGUCUUCUUCCUCCUUUAUCAACAGAGGAUUGAGCAUCA
B19: chr6:41757443:41757444:+_ENSG00000214736_ENST00000398881|hu_mus|hu_hu_hu_mus_False|1_48 (ssRNA)
RNA: GGGAGUUCUACAGUCCGACGAUCGAACCGUGCAGAGGCAACAUCUCAGCCGACACUGGGGGAUGGGGGGGCAGUGGGGGGGGGUUCAGGGAAGGGGAGGGAGUCAACUUCAGCUGCCACUCAGGUAGGAUCUUGUGGGGCACACAACAGAGGAUUGAGCAUCA
B20: 55646187_55646307_502_5pUTR_ENSG00000115355_ENST00000336838|human|control|control (ssRNA)
RNA: GGGAGUUCUACAGUCCGACGAUCGAAGGGGAGUAAAAAUUUCGUUCUCCAUUUUACAGAGUAUGUAUUUGAAAAAAGGAACUACCACAAAAAUACGCCUAGGGAAUUGGUCACUAAACGUGGAAGUAAGUAGAAAUCAAUGAACAACAGAGGAUUGAGCAUCA
B21: chr3:10015032:10015033:+_ENSMUSG00000027533_ENSMUST00000029046|mus_mus|mus_mus_mus_hu_True|48_108 (ssRNA)
RNA: GGGAGUUCUACAGUCCGACGAUCGUUGUUGCCAUCACAAGUGAUGAUACAAUCUGGCUUGGCCAUUGCGCCCAUUUUUCGCAAAGCCAGUCCUACUCCUAGCUCCUUCAUGUAUUCAUCAAAGCCUUUGCUGUCCACCAGGCGCAACAGAGGAUUGAGCAUCA
B22: 179075906_179076026_4327_3pUTR_ENSG00000143322_ENST00000408940|human|control|control (ssRNA)
RNA: GGGAGUUCUACAGUCCGACGAUCAGUAUGCAGGGGAACUGUAUCAGAACAGGAUUCAUUCCUUUGUGAGAACCUGUAGGGACUACUAUUUUCAAAAUCAACACUGGUUAAUGCUCUGAAUGCUACCAGGAAUAAAGGAAGACACAACAGAGGAUUGAGCAUCA

molecular target: T1, UNK ZnF1-3; assay: nsRBNS (natural sequence RNA bind-n-seq); RBNS binding buffer (assumed for nsRBNS): 25 mM Tris pH 7.5, 150 mM KCl, 3 mM MgCl2, 0.01% Triton X-100, 500 ug/ml BSA, 20 U/ml SUPERase-In, 4 C; UNK is unkempt and MSI1 is Musashi-1; names of the RNAs are library labels; protein concentration not given here; high values mean tight binding

Binder	binding signal
B1	0.902 enrichment R
B2	1.19 enrichment R
B3	1.32 enrichment R
B4	0.721 enrichment R
B5	1.22 enrichment R
B6	0.933 enrichment R
B7	0.436 enrichment R
B8	0.84 enrichment R
B9	0.568 enrichment R
B10	0.999 enrichment R
B11	1.14 enrichment R
B12	2.75 enrichment R
B13	2.31 enrichment R
B14	0.727 enrichment R
B15	1.15 enrichment R
B16	1.24 enrichment R
B17	0.711 enrichment R
B18	0.424 enrichment R
B19	2.09 enrichment R
B20	1.42 enrichment R
B21	0.619 enrichment R
B22	1.36 enrichment R
